# Assay results taken from PubChem BioAssay AID1745853 (National Center for Advancing Translational Sciences (NCATS), 2022).
# The list shows a part of the results. These are further read-outs of the screen, such as a control signal, another cell line or another target. No call is given for them.
# What was measured:
# Test in all cases: Primary Screen for Target Class Profiling of Small Molecule Inhibitors of Methyltransferases
# [1] = target: Glycine N-methyltransferase (Homo sapiens) (UniProt Q14749); details: purified enzyme, MTase-Glo SAH luminescence; measured here: GNMT inhibition; at 40 µM; stronger effect = lower value
# Method in brief: (§1)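 Each enzyme was assayed with SAM and its substrate. SAH formation detected by MTase-Glo luminescence; single-point 40 uM screen[…].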
# [2] = target: Guanidinoacetate N-methyltransferase (Homo sapiens) (UniProt Q14353); details: purified enzyme, MTase-Glo SAH luminescence; measured here: GAMT inhibition; at 40 µM; stronger effect = lower value
# Method in brief: as §1
# [3] = target: Histamine N-methyltransferase (Homo sapiens) (UniProt P50135); details: purified enzyme, MTase-Glo SAH luminescence; measured here: HNMT inhibition; at 40 µM; stronger effect = lower value
# Method in brief: as §1
# [4] = target: Nicotinamide N-methyltransferase (Homo sapiens) (UniProt P40261); details: purified enzyme, MTase-Glo SAH luminescence; measured here: NNMT inhibition; at 40 µM; stronger effect = lower value
# Method in brief: as §1
# [5] = target: Phenylethanolamine N-methyltransferase (Homo sapiens) (UniProt P11086); details: purified enzyme, MTase-Glo SAH luminescence; measured here: PNMT inhibition; at 40 µM; stronger effect = lower value
# Method in brief: as §1
# % is set by controls: 0 for no effect and ±100 for the full control effect.
Compound,"activity change, negative = inhibition [1] [%]","activity change, negative = inhibition [2] [%]","activity change, negative = inhibition [3] [%]","activity change, negative = inhibition [4] [%]","activity change, negative = inhibition [5] [%]"
C[C@]1(C2CCCC2)Cc2cc(OCC(=O)O)c(Cl)c(Cl)c2C1=O,-0.936,0.447,13.3,-54.3,5.31
CC(=O)Nc1ccc2c(c1)S(=O)(=O)N=C(CC(C)C)N2c1ccccc1,-9,-9.27,-12.9,-24.4,-10.2
CC(C)CCNC(=O)C1(C)Cn2c(c(-n3cccc3)c3ccccc32)C(=O)N1Cc1cccs1 (configuration not stated),2.73,4.18,-3.06,0.036,-2.35
COc1cccc(CNC(=O)c2cc3n(n2)CC(C)(C(=O)NC2CCCCCC2)N(C)C3=O)c1 (configuration not stated),2.06,1.08,2.58,5.11,-0.612
COC(=O)Nc1cc(C2CC2)nn1C,-3.34,-7.75,-0.92,-10.6,-6.62
Cn1c(=O)c2ccc(C(=O)NC3CCCC3)cc2n2c(SCC(=O)Nc3cc(F)ccc3F)nnc12,-5.01,3.09,-0.276,1.37,1.63
CC1=C2C[C@@]3(C)C(CCC[C@@H]3C)C(O)C2(O)OC1=O (some centres not stated),-3.76,-0.093,6.08,-16.6,-10.4
Cc1ccc(C)c(S(=O)(=O)c2nnn3c2nc(NCCCOC(C)C)c2ccccc23)c1,-3.11,0,3.85,-5.35,-3.67
S=C(NCc1ccc2c(c1)OCO2)N1CCN(c2ncnc3c2oc2ccccc23)CC1,-8.08,-7.39,3.69,-27.9,-9.05
CCn1ncc(CN2CCCCCNC(=O)[C@@H]3CCC[C@@H]32)c1C,-5.34,-0.9,1.52,-5.17,7.57
COc1ccc(CC2(CO)CCN(c3nccc(N)n3)CC2)cc1,-4.25,-3.13,-16.2,-4.59,0.95
O=C(Nc1cc(Cl)cc(Cl)c1)c1ccn2nccc2c1,-7.54,-4.52,0.164,-12.2,-5.07
CCc1cccc(NC(=O)[C@@H]2CN(S(C)(=O)=O)C[C@H]2c2ccncc2)c1,-0.722,-4.54,-2.26,-6.78,-10.2
Cn1cc(-c2ccncc2)cc1C(=O)N1CCN(c2ccc(F)cc2)CC1,-9.15,-2.29,-9.07,-9.68,-11
COc1ccc(CCN2C(=O)c3cc4ccccc4n3CC2(C)C(=O)NCCC(C)C)c(OC)c1 (configuration not stated),-0.017,2.65,-1.46,-2.52,-4.65
Cc1cnc(C(=O)N[C@@H]2CN(C3CCOCC3)C[C@H]2CN(C)C)cn1,-2.23,-1.29,0.19,-4.05,-1.55
O=C(Cn1nc2n(Cc3ccccc3)c(=O)c3ccccc3n2c1=O)Nc1cccc(F)c1,-1.26,-0.156,-0.453,-5.65,-3.21
CC(CCc1ccccc1)N1C(=O)c2cc3occc3n2CC1(C)C(=O)NC1CCCCCCC1 (configuration not stated),-1.38,0,2.37,-7.66,-3.27
O=C(N[C@@H]1CN(Cc2ccncc2F)C[C@H]1CO)C1CC1,-0.249,-1.26,0.491,-3.72,0.597
CCCC1c2ccc(C)n2CCN1C(=O)Nc1cccc(Cl)c1C (configuration not stated),4.01,-0.392,-0.527,5.37,-3.2
CC1=C(C)C(=O)OC(C(C)C2CCC3C4CC=C5CC(OC6OC(COC7OC(CO)C(O)C(O)C7O)C(O)C(O)C6O)CC(O)C5(C)C4CCC23C)C1 (configuration not stated),0,1.47,2.9,-13,6.8

Compound,"activity change, negative = inhibition [1] [%]","activity change, negative = inhibition [2] [%]","activity change, negative = inhibition [3] [%]","activity change, negative = inhibition [4] [%]","activity change, negative = inhibition [5] [%]"
CCCN1C(=O)c2c(NC(C)=O)c3ccccc3n2CC1(C)C(=O)NC1CCCC1 (configuration not stated),-1.17,2.64,-1.22,0.946,4.06
COc1ccc(N2CCN(C(=O)CCc3nnc4n(CCc5ccccc5)c(=O)c5ccccc5n34)CC2)cc1,-0.473,0,4.42,-21.3,-0.299
CCOC(=O)c1cc2n(n1)CC(C)(C(=O)NC1CCCCC1)N(c1ccc(C)cc1)C2=O (configuration not stated),3.49,0,8.07,9.27,4.45
CN1C(=O)N[C@@H](Cc2c[nH]c3c(Cl)cccc23)C1=O,0.11,0.88,7.74,-13.5,5.04
CC1(C)CCC2=C(O1)c1ccccc1C(=O)C2=O,-82.2,-75.2,-14.1,-33.7,-22.5
COc1ccc(NC(=O)CN(C)S(=O)(=O)c2ccc3[nH]c4c(c3c2)CCCC4)cc1,-4.29,-0.835,-8.49,-8.42,-6.57
Oc1ccc(-c2ccc(-c3nc(CCc4ccccc4)no3)cn2)cc1,-6.35,-7.37,-1.32,-5.04,-9.58
Cc1ccc(Cn2c(=O)c3ccccc3n3c(=O)n(CC(=O)c4ccc(F)cc4)nc23)cc1,6.45,1.73,5.89,5,8.43
C[C@H](c1ccc(F)cc1CCCC(=O)O)N(c1cc(F)ccc1F)S(=O)(=O)c1ccc(Cl)cc1,-7.12,1.12,7.93,-22.6,3.25
CC(C)NC(=O)C1CCc2nnc(CNC(=O)C3CC3)n21 (configuration not stated),-0.68,-4,-0.518,-9.11,-6.89
CCn1c(=O)n(CC)c2cc(S(=O)(=O)Nc3ccc(Br)c(C)c3)ccc21,-3.57,1.2,-0.629,-13,-5.34
CCCC1(CCC)CCC2(CCN(CCCN(CC)CC)C2)CC1,-3.92,0.737,-56.6,-35.6,-11.5
CN1C[C@@H](NC(=O)NC2CCCCC2)C[C@H]1c1nc(-c2ccccn2)no1,-4.69,-8.33,-2.45,-9.13,-23.4
Cc1cnc(C2CC2)n1C1CCN(S(=O)(=O)c2cccc(F)c2)CC1,-1.91,0,-3.15,1.41,3.17
Cc1cc(C)cc(N2C(=O)c3cc4occc4n3CC2(C)C(=O)NC2CCC(C)CC2)c1 (configuration not stated),-6.7,2.73,-4.09,-7.18,-2.96
Cc1ccc(CNC(=O)CCCc2nnc3n4nc(-c5ccccc5)nc4c4ccccc4n23)cc1,-6.95,0,3.77,11.4,0.438
CC(=O)N1CCCN(C(=O)c2ccc3c(c2)NC(C)(CCCCc2ccccc2)CO3)CC1 (configuration not stated),-1.09,-0.555,2.72,-6.8,0.678
COc1cc(/C=C/C(=O)OC2CC(OC(C)=O)C(OC(C)=O)C3C2CCC2C(=O)OC(c4ccoc4)CC23C)ccc1O[C@@H]1O[C@H](CO)[C@@H](O)[C@H](O)[C@H]1O (some centres not stated),-2.4,-11.4,0.767,-18.9,0.434
COc1ccccc1CC(=O)N1CC[C@@H]2NC(=O)[C@H]3C[C@H](NC(=O)C4CCC4)CN3C(=O)[C@H]21,-4.92,-10.8,-3.34,-14.3,-25.3
COCCC1(N(C)C)CCN(S(=O)(=O)c2cc(OC)ccc2OC)CC1,-4.75,5.08,-3.35,-4.57,0.095
CCN(CC)C(=O)c1csc(-c2cccc(OC(C)C)c2)n1,-6.9,0.096,-0.653,-3.24,3.38

Compound,"activity change, negative = inhibition [1] [%]","activity change, negative = inhibition [2] [%]","activity change, negative = inhibition [3] [%]","activity change, negative = inhibition [4] [%]","activity change, negative = inhibition [5] [%]"
CN1CCN(c2ncnc3sc4c(c23)CCNC4)CC1,-17.7,-6.62,-37.9,-79.5,-88.7
COC(=O)[C@H]1CCCN1C(=O)[C@@H]1C[C@H](NC(=O)NC(C)C)CN1C(=O)c1cccn1C,-3.32,-0.141,-1.82,-8.07,-2.26
COc1cccc(CNC(=O)CCn2ccc3cc(S(=O)(=O)N4CCCCC4)ccc32)c1,3.36,1.09,7.41,1.55,4
Cc1ccccc1CN1C(=O)c2cc3sccc3n2CC1(C)C(=O)NC1CCCC1 (configuration not stated),-11,2.37,-12,-14.2,-9.06
Cc1cc(C)cc(N2C(=O)CSc3c(c4ccccc4n3C)C2C(=O)NCCC(C)C)c1 (configuration not stated),-0.431,0.176,-1.85,-6.16,-3.41
Cc1c(CO)cccc1NC(=O)c1ccc(CN2CCCC(C)C2)cc1 (configuration not stated),-2.38,1.32,-12.7,-0.197,8.28
CCc1ccccc1NC(=O)Cn1nc2cc(C)nc(Nc3ccc(F)cc3)n2c1=O,11.2,0,7.03,0.831,3.85
CCCn1c(C)cnc1CC1CCN(S(=O)(=O)c2ccccc2)C1 (configuration not stated),-3.05,-4.43,-28.7,-29.8,-21.4
Fc1cc(F)c2c(c1)[C@@H]1C=CC[C@@H]1[C@H](c1ccncc1)N2,-7.98,3.88,0.274,-7.11,-2.52
CC(C)Cn1c(=O)c2ccc(C(=O)NC(C)C)cc2n2c(SCC(=O)c3ccc(F)cc3)nnc12,4.79,0.84,1.79,2.82,3.47
O=C(C1CC1)N1CCC(Cc2nc(-c3ccc(F)cc3)no2)CC1,-3.93,1.01,1.19,-11.8,5.02
CCc1nc2cc(N3CCC(C(=O)NCc4cccnc4)CC3)cnc2nc1CC,-9.23,-2.64,-4.4,-6.39,-6.14
COc1ccc2cc3n(c2c1)CC(C)(C(=O)NC1CCCC1)N(Cc1ccccc1OC)C3=O (configuration not stated),-3.48,-0.584,1.39,-3.32,-2.27
CCN1CCN(Cc2ccc(-c3cc4c(NC(C)c5ccccc5)ncnc4[nH]3)cc2)CC1 (configuration not stated),-32.9,–,-52.7,–,–
Cc1cc(C)cc(NC(=O)Cn2nc3n(C)c(=O)c4ccc(C(=O)NC5CCCC5)cc4n3c2=O)c1,2.97,-2.01,-2.04,-3.42,-6.7
CC(C)Oc1ccc(CNC(=O)CNC(=O)C2(C)Cn3c(cc4ccccc43)C(=O)N2C)cc1 (configuration not stated),2.98,0.005,3.24,12.4,0.744
Cc1nc(C)c(C(=O)N2CCC3(CC2)CC(N(Cc2ccccc2)C2CC2)CCO3)s1 (configuration not stated),-5.2,0.144,0.314,-3.7,1.48
CC1(C(=O)NC2CCCCCCC2)Cn2c(ccc2-c2ccco2)C(=O)N1Cc1cccc(F)c1 (configuration not stated),-0.549,0,2.68,-3.89,0.305
Cc1ccc(Cl)cc1NC(=O)Cn1nc2n(CCCOC(C)C)c(=O)c3ccccc3n2c1=O,6.34,0.678,9.09,-1.42,6.45
